Data on 31 compounds can be found in PubChem BioAssay AID1745853 (National Center for Advancing Translational Sciences (NCATS), 2022).

“And” between values parts separate entries of the source, which are not always exact repeats. Equal values may be shown once. The list shows a part of the results. Further columns of the screen follow, without active or inactive calls.

Test in all cases: Primary Screen for Target Class Profiling of Small Molecule Inhibitors of Methyltransferases
The target of test [1] is Glycine N-methyltransferase (Homo sapiens) (UniProt Q14749). The conditions noted are these: purified enzyme, MTase-Glo SAH luminescence; measured here: GNMT inhibition; at 40 µM; stronger effect = lower value. In a few lines: (§1)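 Each enzyme was reacted with SAM and its substrate, with compounds tested once at 40 uM; SAH formed was read by MTase-Glo luminescence.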
Test [2] deals with Guanidinoacetate N-methyltransferase (Homo sapiens) (UniProt Q14353). The conditions noted are these: purified enzyme, MTase-Glo SAH luminescence; measured here: GAMT inhibition; at 40 µM; stronger effect = lower value. An outline of the steps:
as §1

Test [3] concerns the target Histamine N-methyltransferase (Homo sapiens) (UniProt P50135). The conditions noted are these: purified enzyme, MTase-Glo SAH luminescence; measured here: HNMT inhibition; at 40 µM; stronger effect = lower value. In a few lines: as §1
Test [4] addresses Nicotinamide N-methyltransferase (Homo sapiens) (UniProt P40261). To be noted: purified enzyme, MTase-Glo SAH luminescence; measured here: NNMT inhibition; at 40 µM; stronger effect = lower value. An outline of the steps:
as §1

The target in test [5] is Phenylethanolamine N-methyltransferase (Homo sapiens) (UniProt P11086). To be noted: purified enzyme, MTase-Glo SAH luminescence; measured here: PNMT inhibition; at 40 µM; stronger effect = lower value. In a few lines:
as §1
On the % scale 0 is the no-effect control and ±100 the full control effect.

Turning to `CC(C)CCNC(=O)C1(C)Cn2nc(C(=O)NCc3ccccn3)cc2C(=O)N1C` (stereo not given), the activity change, negative = inhibition was 7.74% in test [1]; 0% in test [2]; 8.46% in test [3]; 8.85% in test [4]; 5.57% in test [5].

`O=C(NCc1cccnc1)C1CN(S(=O)(=O)c2ccccc2)CC12CCCCC2` (stereo not given): the activity change, negative = inhibition in test [1] was -0.337%; in test [2], -0.045%; in test [3] it was -1.19%; in test [4] it was -2.51%; in test [5], -1.11%.

Regarding `Cc1onc(-c2c(Cl)cccc2Cl)c1C(=O)N[C@@H]1C(=O)N2[C@@H]1SC(C)(C)[C@@H]2C(=O)O`, the activity change, negative = inhibition is -3.84% in test [1]; -4.99% in test [2]; 6.53% in test [3]; -18% in test [4]; 3.13% in test [5].

On to `Cc1ccc(NC(=O)N2CCn3cccc3C2C(C)C)cc1C` (stereo not given), for which the activity change, negative = inhibition in test [1] came to 16.8%; in test [2], 1.19%; in test [3], 10.8%; in test [4] it was 7.72%; in test [5], 9.75%.

With `CC1(C(=O)NC2CCCCCC2)Cn2c(cc3occc32)C(=O)N1CCc1ccccc1` (stereo not given), the activity change, negative = inhibition in test [1] worked out at 3.09%; in test [2] it was 1.53%; in test [3] it was 5.96%; in test [4] it was 4.42%; in test [5], 2.71%.

In the case of `COCCOCc1nc(C2CCNCC2)no1`, the activity change, negative = inhibition was -1% in test [1]; -1.72% in test [2]; -1.24% in test [3]; -2.79% in test [4]; -0.906% in test [5].

In the case of `COc1ccccc1CN1C(=O)c2cc3sccc3n2CC1(C)C(=O)NC1CCCC1` (stereo not given), the activity change, negative = inhibition in test [1] is -18.2%; in test [2] it was 4.53%; in test [3], 0.057%; in test [4] it was -7.33%; in test [5], -0.45%.

As to `COc1ccccc1Oc1ncccc1CNCc1c(F)cccc1Cl`, the activity change, negative = inhibition was -5.86% in test [1]; -5.82% in test [2]; -8.07% in test [3]; -18.1% in test [4]; -33.2% in test [5].

In the case of `CN(C1CCc2nn(CC3CC3)c(=O)n2CC1)S(=O)(=O)c1ccc(C#N)cc1` (stereo not given), the activity change, negative = inhibition was -4.74% in test [1]; -1.86% in test [2]; -0.714% in test [3]; -2.73% in test [4]; -1.94% in test [5].

Turning to `C[C@@]12C[C@]3(O)O[C@H](O1)[C@]1(COC(=O)c4ccccc4)[C@H]3C[C@@]12O[C@@H]1O[C@H](COC(=O)c2ccccc2)[C@@H](O)[C@H](O)[C@H]1O`, the activity change, negative = inhibition in test [1] was 0%; in test [2] it was 0.941%; in test [3], -2.77%; in test [4] it was -11.6%; in test [5], 2.85%.

As for `COc1cccc(CC(=O)N2CC[C@@H](NC(=O)c3cnccn3)[C@H](O)C2)c1`, the activity change, negative = inhibition in test [1] was -5.55%; in test [2], -6.36%; in test [3], -4.46%; in test [4] it was -15.1%; in test [5] it was -9.01%.

Regarding `CCC(C)NC(=O)Cn1nc2n(Cc3ccc(C)cc3)c(=O)c3ccc(C(=O)NC(C)C)cc3n2c1=O` (stereo not given), the activity change, negative = inhibition in test [1] was -2.36%; in test [2], 3.6%; in test [3], -0.641%; in test [4], -0.094%; in test [5], 1.52%.

In the case of `COc1ccc(NC(=O)CSc2nnc3n(C)c(=O)c4ccc(C(=O)NC5CCCC5)cc4n23)cc1`, the activity change, negative = inhibition in test [1] was -1.42%; in test [2], 0%; in test [3], 4.55%; in test [4] it was 5.19%; in test [5] it was 5.58%.

As for `Cc1ccc(CN2CC(=O)N(Cc3ccccc3F)c3ccccc3S2(=O)=O)cc1`, the activity change, negative = inhibition was -7.72% in test [1]; -1.13% in test [2]; -11.2% in test [3]; -16.7% in test [4]; -9.92% in test [5].

On to `CCCCCNc1nc2c(-c3cccc(C)c3)nnn2c2ccccc12`, for which the activity change, negative = inhibition was 0.841% in test [1]; 1.08% in test [2]; -1.55% in test [3]; -1.09% in test [4]; -2.06% in test [5].

For the compound `COc1ccccc1CNC(=O)C1c2c(n(C)c3ccccc23)SCC(=O)N1C1CCCCC1` (stereo not given), the activity change, negative = inhibition in test [1] came to 12.5%; in test [2], 0%; in test [3], 4.93%; in test [4] it was 0.45%; in test [5], 6.78%.

As to `CCNC(=O)[C@@H]1C[C@H](NC(=O)Cc2cccc(F)c2F)CN1C1CCCC1`, the activity change, negative = inhibition in test [1] is -0.003%; in test [2], 2.06%; in test [3], -0.453%; in test [4], 4.03%; in test [5] it was -0.503%.

In the case of `O=C(COC(=O)C(Cc1c[nH]c2ccccc12)NC(=O)c1ccco1)c1ccc(Br)cc1` (stereo not given), the activity change, negative = inhibition in test [1] is -8.98%; in test [2], 4.3%; in test [3], -6.95%; in test [4], -8.92%; in test [5], -2.87%.

For the compound `Cc1cn(C2C=CC(CO)O2)c(=O)[nH]c1=O` (stereo not given), the activity change, negative = inhibition in test [1] was -3.58%; in test [3], -1.54%.

On to `CCCS(=O)(=O)N1CCC(F)(c2nc(CC(C)C)no2)CC1`, for which the activity change, negative = inhibition in test [1] is 0.655%; in test [2], -0.212%; in test [3], 1.61%; in test [4] it was -3.13%; in test [5] it was -0.426%.

In the case of `C=Cc1ccc(Cn2nc3n(CCC(C)C)c(=O)c4ccc(C(=O)NCC(C)C)cc4n3c2=O)cc1`, the activity change, negative = inhibition in test [1] was 7.58%; in test [2], 0.381%; in test [3], 11.1%; in test [4], 6.49%; in test [5] it was 7.31%.

Regarding `CC(C)N(C(=O)c1ccccc1-c1ccc(CS(C)(=O)=O)cn1)C(C)C`, the activity change, negative = inhibition in test [1] was -3.31%; in test [2], -4.4%; in test [3] it was -0.793%; in test [4] it was -4.27%; in test [5], -4.09%.

Consider `OC1CC(c2cc(N3CCC(c4nc5ccccc5[nH]4)CC3)ncn2)C1` (stereo not given), for which the activity change, negative = inhibition is -3.32% in test [1]; -3.27% in test [2]; -23.7% in test [3]; -11.3% in test [4]; 4.97% in test [5].

Regarding `CN(C)Cc1nnc(C2CC(NC(=O)Cc3c(F)cccc3Cl)C2)n1C` (stereo not given), the activity change, negative = inhibition in test [1] is -4.6%; in test [2], -5.21%; in test [3], -3.04%; in test [4], -7.03%; in test [5], -5.19%.

With `CCOC(=O)[C@H](CCc1ccccc1)N[C@@H](C)C(=O)N1Cc2ccccc2C[C@H]1C(=O)O`, the activity change, negative = inhibition is 3.48% in test [2], -13.2% in test [4] and -0.856% in test [5].

On to `CCc1ccc(NS(=O)(=O)c2ccc3[nH]c4c(c3c2)CCCC4)cc1`, for which the activity change, negative = inhibition in test [1] was -1.55%; in test [2], 0%; in test [3], 5.07%; in test [4] it was 1.67%; in test [5], 2.88%.

On to `NC1(C(=O)N[C@@H](CCO)c2ccc(Cl)cc2)CCN(c2ncnc3[nH]ccc23)CC1`, for which the activity change, negative = inhibition is -3.03% in test [1]; 0.859% and -5.08% in test [2]; 6.04% in test [3]; -42.7% and -43% in test [4]; -8.88% and -16.6% in test [5].

As to `Cc1cc(C)cc(N2C(=O)c3ccc(-c4ccco4)n3CC2(C)C(=O)NCc2ccc(Cl)cc2)c1` (stereo not given), the activity change, negative = inhibition in test [1] was -16.2%; in test [2], 0%; in test [3] it was 5.5%; in test [4], 6.6%; in test [5], 3.98%.

For `CC(CCc1ccccc1)NCC(O)c1ccc(O)c(C(N)=O)c1` (stereo not given), the activity change, negative = inhibition was 4.88% and 6.13% in test [1]; 5.05% and 11.4% in test [2]; 9.14% and 4.18% in test [3]; -13% and -3.88% in test [4]; -0.238% and 3.16% in test [5].

As to `COc1ccc(CCNC(=O)c2cc3n(n2)CC(C)(C(=O)NCc2ccc(F)cc2)N(C)C3=O)cc1OC` (stereo not given), the activity change, negative = inhibition in test [1] is -16.9%; in test [2], 4.39%; in test [3], 3.33%; in test [4] it was 3.04%; in test [5], 2.08%.

For the compound `CCC(CC)NC(=O)c1ccc2c(c1)N(S(C)(=O)=O)CC2`, the activity change, negative = inhibition was -0.1% in test [1]; 0.543% in test [2]; 1.29% in test [3]; -0.465% in test [4]; 3.91% in test [5].
